Experimental data published in the supplement of paper PMC3334620.
The full ranking holds about 33,000 sequences; the median of “E-score (-0.5 to 0.5)” is about -0.017, and the highest 2% start at about 0.3. Some of the results follow.

These sequences were tested against T1, Sut1 (UniProt P53032) (assay: PBM E-score (8-mer binding enrichment) (E-score (-0.5 to 0.5)); higher = stronger / more preferred TF binding; most listed sequences are background and not binding sites). Conditions: protein concentration: 200 nM; construct: GST-full length.
T1 sequence: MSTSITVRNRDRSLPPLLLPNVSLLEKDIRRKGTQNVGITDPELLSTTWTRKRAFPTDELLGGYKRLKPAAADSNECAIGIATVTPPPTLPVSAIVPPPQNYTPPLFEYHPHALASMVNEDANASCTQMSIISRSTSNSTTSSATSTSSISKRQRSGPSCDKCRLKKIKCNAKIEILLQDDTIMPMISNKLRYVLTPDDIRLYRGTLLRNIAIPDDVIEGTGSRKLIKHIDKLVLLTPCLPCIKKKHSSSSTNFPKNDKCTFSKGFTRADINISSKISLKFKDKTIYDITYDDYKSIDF
Procedure, shortened: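 The E-score, a modified Wilcoxon-Mann-Whitney statistic, was computed by the Universal PBM Analysis Suite for every ungapped eight-base word pooled with its reverse complement. Scans behind it were normalised with masliner after bound GST-tagged yeast transcription factors were detected with fluorescent anti-GST. The proteins, at about 100-200 nM, had been applied to universal all-10-mer Agilent arrays made double-stranded by primer extension.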

Row | Sequence | PBM E-score
1 | CTGCGCCC | -0.393
2 | ACTTGATA | 0.284
3 | GTTATAAA | 0.303
4 | CTCACAGA | -0.114
5 | ATGTAGTG | 0.0335
6 | AAGACTTG | 0.00502
7 | GTTAGTAA | 0.0675
8 | AGTTGCAG | -0.0864
9 | AGCCATAG | -0.239
10 | AGTGGTGA | 0.0435
11 | CCGGACGC | 0.0297
12 | ACAAAACA | 0.172
13 | CTTCCCCC | -0.331
14 | ATGCATAC | -0.0233
15 | TTACTCAA | 0.257
16 | AACTCCCG | 0.204
17 | ATGAAAGA | 0.18
18 | CATGCCAA | -0.0109
19 | ACTCGGCC | -0.162
20 | GAGCCATC | -0.145
21 | CCCTCCCG | -0.114
22 | CCACGAAA | -0.0862
23 | ACGCGTTC | -0.093
24 | AAATAATC | 0.235
25 | CGACTCCG | 0.47

Row | Sequence | PBM E-score
26 | TGGGCAAA | 0.0407
27 | CTAAAATA | 0.157
28 | AAAGCGCA | -0.155
29 | AGTCCAAA | 0.169
30 | ATTGTTGC | -0.0508
31 | ACTTCAAT | 0.249
32 | CACCCGAC | -0.101
33 | CTGGCGTC | -0.204
34 | CCTTTTCA | 0.0013
35 | AAGCGCCA | -0.309
36 | ATTCCCTA | 0.11
37 | AATAGTCT | 0.0832
38 | AGGCCACT | -0.123
39 | TCGCAGAA | -0.0495
40 | ACAGTTTC | 0.171
41 | AACTGCCC | -0.236
42 | GCAGTTGA | -0.0138
43 | CCCCAGCA | -0.268
44 | TACCAAGA | -0.0576
45 | ATGTCGGC | -0.128
46 | CCAAAACG | 0.0306
47 | AAGAGCCC | -0.09
48 | CCACAGGA | -0.0589
49 | TACACCAA | 0.0304
50 | ACGTACAC | -0.0319

Row | Sequence | PBM E-score
51 | AGATGTCA | 0.0548
52 | TATTATAA | 0.252
53 | AAAGGGCT | -0.0486
54 | ACGCGCGT | 0.149
55 | AGCCTCGG | -0.012
56 | AACCAGTT | 0.24
57 | AGCGCCGG | 0.174
58 | GGCTAAGA | -0.0669
59 | TACTGAAA | 0.232
60 | AGACATTG | -0.0765
61 | ACGGAGTA | 0.473
62 | GCCCCGAC | -0.137
63 | CGTACACC | 0.0584
64 | AAGCTCCC | -0.156
65 | GGTTATGA | -0.00868
66 | GGTGATCA | -0.0693
67 | CAGGCTCA | -0.214
68 | CCGACCTC | -0.0484
69 | TGTGGGAA | -0.0897
70 | AATCATTG | 0.00081
71 | CTCAGACA | -0.0135
72 | AGCCTGAT | -0.0931
73 | ATCGTCCA | -0.0391
74 | ATACGCAC | -0.032
75 | GGCGTCGA | -0.167

Row | Sequence | PBM E-score
76 | ACTAATGC | 0.0803
77 | AAGAACTG | -0.0472
78 | ACGCCGTC | -0.105
79 | CCCCACGG | -0.178
80 | GGATTTAC | 0.102
81 | GAAGGTAA | 0.122
82 | CTCAGATC | -0.11
83 | GAATCTCA | 0.049
84 | ATATCCTA | 0.0827
85 | CTCTTCTA | 0.0562
86 | ACGTGCGG | -0.0575
87 | CACTATAG | 0.111
88 | GAGAAGGA | -0.0992
89 | AGCTACTC | 0.066
90 | CCACGACC | -0.219
91 | GCTACATA | -0.0371
92 | CGGTCATC | -0.125
93 | AGCCACTA | 0.0177
94 | AGCTCGGC | -0.00249
95 | CACATTAC | 0.0459
96 | AAAATGGG | 0.158
97 | CAGCAAAC | -0.142
98 | GATATGTA | 0.22
99 | CCCTACTA | -0.243
100 | CGGCTCGC | 0.0542

Row | Sequence | PBM E-score
101 | TTAGCGAA | 0.0425
102 | CATTGAAG | -0.0305
103 | ACTTTTAT | 0.267
104 | GGGTAATA | -0.00685
105 | ATCATTTG | 0.162
106 | TGGGTACA | -0.0505
107 | TAGCGTGA | -0.0832
108 | AATAAGAT | 0.17
109 | CGATACGA | -0.0883
110 | ATGCTGAC | -0.0696
111 | GAAGTAGA | 0.12
112 | ACAAGCAT | -0.138
113 | AGCCACAG | -0.248
114 | TCACTGCA | 0.101
115 | TAAACGGA | 0.321
116 | CGATGCTC | 0.156
117 | CCCCTACC | -0.258
118 | ACAAAAAG | 0.199
119 | CAATTCCA | -0.032
120 | CTTACTGA | -0.105
121 | CGTTATGC | -0.106
122 | CGGCCTAC | 0.0389
123 | ACTTTGTA | 0.135
124 | CCCGATAG | 0.0429
125 | ATCTACAC | 0.0967

Row | Sequence | PBM E-score
126 | GTGCACAA | -0.0296
127 | AGTACCGC | -0.0831
128 | ATGGTCGG | 0.0544
129 | ATTGTCTG | 0.0498
130 | CAGAAAGC | 0.0267
131 | ACGTCGAA | -0.00337
132 | GGTTTAAA | 0.178
133 | AAGTCCGT | 0.487
134 | CAATATAG | 0.1
135 | AGGCATAA | -0.0627
136 | CTGCACTA | 0.192
137 | AACTCTGA | 0.0904
138 | AGATCTTG | -0.0225
139 | ACTAGGAC | -0.095
140 | GAAAGTGA | 0.127
141 | AACCAGAA | 0.0654
142 | AAATTACT | 0.234
143 | CTGCTAGC | -0.291
144 | CTGAATTA | 0.143
145 | AGCGCAAT | 0.0502
146 | CCGACCAC | -0.114
147 | TAGTAGGA | -0.0196
148 | TCCAACAA | 0.0199
149 | ACTAACAA | 0.0492
150 | CGACGCCG | 0.0167

Row | Sequence | PBM E-score
151 | AAAAGAGG | -0.0595
152 | GAATTCGC | 0.165
153 | ATGCTCCA | -0.0644
154 | AAGGACGA | -0.0622
155 | CAATCTCG | -0.097
156 | GACGTATC | -0.113
157 | AGGTATAC | -0.0604
158 | ACCGGGCC | -0.053
159 | ACCGACAC | 0.0514
160 | GCTTTGAC | 0.0882
161 | AGGCCTCG | -0.194
162 | AATATTCG | 0.0876
163 | AGATGACT | -0.13
164 | GCAAACGC | -0.175
165 | CCCTACCC | -0.251
166 | GACGTGCA | -0.095
167 | TGGGAAAA | -0.0944
168 | CAATGCGC | -0.074
169 | TCTCAGAA | -0.12
170 | AATATTGA | 0.122
171 | AAGCATTA | 0.0192
172 | CTACGGGC | -0.206
